# Results published in the supplement of paper PMC4604168 (melanoma cell lines).
# Some of the results follow. Repeats are few or missing, and single values can be far off.
# Tested on: COLO829
# Test: cell count relative to DMSO control; melanoma cells; higher = more viable cells
# Details: library dose: standard library concentration; 72 h
# 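Further: cells treated in 1,536-well plates, then fixed and DAPI-stained, with nuclei counted from automated high-throughput microscope images.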
row,SMILES,cell count [%]
1,"CCCS(=O)(=O)Nc1ccc(F)c(C(=O)c2c[nH]c3ncc(Cl)cc23)c1F + NC(=O)Nc1cc(-c2cccc(F)c2)sc1C(=O)N[C@H]1CCCNC1 [AZD7762] (first compound 0.4 µM, partner dose 0.1 µM)",81.7
2,"C=C(c1ccc(C(=O)O)cc1)c1cc2c(cc1C)C(C)(C)CCC2(C)C [Bexarotene] + COc1ccc(Cl)c(Nc2nc3ccccc3nc2NS(=O)(=O)c2cccc(NC(=O)C(C)(C)N)c2)c1 [XL147] (first compound 10 µM, partner dose 4 µM)",79.8
3,"NC1(c2ccc(-c3nc4ccn5c(=O)[nH]nc5c4cc3-c3ccccc3)cc2)CCC1 + Nc1cccc2c1CN(C1CCC(=O)NC1=O)C2=O [lenalidomide] (first compound 2 µM, partner dose 5 µM)",104
4,"NC1(c2ccc(-c3nc4ccn5c(=O)[nH]nc5c4cc3-c3ccccc3)cc2)CCC1 + O=C(O)c1ccc(-c2c[nH]c3ncc(-c4ccccc4)cc23)cc1C1CCCC1 [GSK650394] (first compound 2 µM, partner dose 0.8 µM)",76.8
5,"C=C(c1ccc(C(=O)O)cc1)c1cc2c(cc1C)C(C)(C)CCC2(C)C [Bexarotene] + O=C(Nc1cccc(Cl)c1)Nc1ncc(CCNc2ncnc3ccsc23)s1 [SNS314] (first compound 10 µM, partner dose 0.004 µM)",75.6
6,"CCCS(=O)(=O)Nc1ccc(F)c(C(=O)c2c[nH]c3ncc(Cl)cc23)c1F + NCC(=O)Nc1ccc(-n2nc(C(F)(F)F)cc2-c2ccc3c(ccc4ccccc43)c2)cc1 [OSU03012] (first compound 0.4 µM, partner dose 5 µM)",68.6
7,"NC1(c2ccc(-c3nc4ccn5c(=O)[nH]nc5c4cc3-c3ccccc3)cc2)CCC1 + C=C(c1ccc(C(=O)O)cc1)c1cc2c(cc1C)C(C)(C)CCC2(C)C [Bexarotene] (first compound 2 µM, partner dose 10 µM)",96.3
8,"CCCS(=O)(=O)Nc1ccc(F)c(C(=O)c2c[nH]c3ncc(Cl)cc23)c1F + COc1cc(Nc2ncc(F)c(Nc3ccc4c(n3)NC(=O)C(C)(C)O4)n2)cc(OC)c1OC [Tamatinib] (first compound 0.4 µM, partner dose 2 µM)",80.3
